{"source": "the supplement of paper PMC8728848", "binders": {"B1": {"name": "Pa IMPa (Pseudomonas aeruginosa), Q9I5W4 (protein)", "chain": "MSLSTTAFPSLQGENMSRSPIPRHRALLAGFCLAGALSAQAATQEEILDAALVSGDSSQLTDSHLVALRLQQQVERIRQTRTQLLDGLYQNLSQAYDPGAASMWVLPANPDNTLPFLIGDKGRVLASLSLEAGGRGLAYGTNVLTQLSGTNAAHAPLLKRAVQWLVNGDPGAATAKDFKVSVVGVDKTAALNGLKSAGLQPADAACNALTDASCASTSKLLVLGNGASAASLSATVRARLQAGLPILFVHTNGWNQSSTGQQILAGLGLQEGPYGGNYWDKDRVPSSRTRTRSVELGGAYGQDPALVQQIVDGSWRTDYDWSKCTSYVGRTTCDDVPGLSDFSKRVDVLKGALDAYNQKAQNLFALPGTTSLRLWLLWADAVRQNIRYPMDKAADTARFQETFVADAIVGYVREAGAAQKELGSYAGQRQQSMPVSGSEETLTLTLPSAQGFTAIGRMAAPGKRLSIRIEDAGQASLAVGLNTQRIGSTRLWNTRQYDRPRFLKSPDIKLQANQSVALVSPYGGLLQLVYSGATPGQTVTVKVTGAASQPFLDIQPGEDSSQAIADFIQALDADKADWLEIRSGSVEVHAKVEKVRGSIDKDYGGDVQRFIRELNEVFIDDAYTLAGFAIPNQAKTPAIQQECAARGWDCDSETLHKLPGTQHINVDQYAQCGGGCSGNPYDQTWGLNPRGWGESHELGHNLQVNRLKVYGGRSGEISNQIFPLHKDWRVLREFGQNLDDTRVNYRNAYNLIVAGRAEADPLAGVYKRLWEDPGTYALNGERMAFYTQWVHYWADLKNDPLQGWDIWTLLYLHQRQVDKSDWDANKAALGYGTYAQRPGNSGDASSTDGNDNLLLGLSWLTQRDQRPTFALWGIRTSAAAQAQVAAYGFAEQPAFFYANNRTNEYSTVKLLDMSQGSPAWPFP"}}, "test_in_all_cases": "glycan array binding signal (z-score within array); higher = stronger binding", "conditions_in_all_cases": "glycan notation: IUPAC condensed, linker removed", "key": {"[1]": {"molecular_target": "Man(a1-2)Man(a1-3)[Man(a1-2)Man(a1-6)]Man(a1-6)[Man(a1-2)Man(a1-2)Man(a1-3)]Man", "outline": "(§1)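 Columns mapping to the same glycan were averaged after glycan names were converted to IUPAC-condensed notation. The data come from 3228 arrays in the Consortium for Functional Glycomics database, limited to those with an available protein sequence. Binding is reported as a within-array Z-score averaged across arrays of one protein sequence and across linkers.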"}, "[2]": {"molecular_target": "Man(a1-2)Man(a1-3)[Man(a1-2)Man(a1-6)]Man(a1-6)[Man(a1-2)Man(a1-2)Man(a1-3)]Man(b1-4)GlcNAc(b1-4)GlcNAc", "outline": "as §1"}, "[3]": {"molecular_target": "Man(a1-2)Man(a1-3)[Man(a1-6)]Man(a1-6)[Man(a1-2)Man(a1-3)]Man(b1-4)GlcNAc(b1-4)GlcNAc", "outline": "as §1"}, "[4]": {"molecular_target": "Man(a1-2)Man(a1-6)[Man(a1-3)]Man(a1-6)[Man(a1-2)Man(a1-2)Man(a1-3)]Man", "outline": "as §1"}, "[5]": {"molecular_target": "Man(a1-2)Man(a1-6)[Man(a1-3)]Man(a1-6)[Man(a1-2)Man(a1-2)Man(a1-3)]Man(b1-4)GlcNAc(b1-4)GlcNAc", "outline": "as §1"}, "Man(a1-3)[Man(a1-6)]Man": {"molecular_target": "Man(a1-3)[Man(a1-6)]Man", "outline": "as §1"}, "[6]": {"molecular_target": "Man(a1-3)[Man(a1-6)]Man(a1-6)[Man(a1-2)Man(a1-3)]Man(b1-4)GlcNAc(b1-4)GlcNAc", "outline": "as §1"}, "[7]": {"molecular_target": "Man(a1-3)[Man(a1-6)]Man(a1-6)[Man(a1-3)]Man", "outline": "as §1"}, "[8]": {"molecular_target": "Man(a1-3)[Man(a1-6)]Man(a1-6)[Man(a1-3)]Man(b1-4)GlcNAc(b1-4)GlcNAc", "outline": "as §1"}, "[9]": {"molecular_target": "Man(a1-3)[Man(a1-6)]Man(b1-4)GlcNAc(b1-4)GlcNAc", "outline": "as §1"}, "[10]": {"molecular_target": "Man(a1-3)[Man(a1-6)]Man(b1-4)GlcNAc(b1-4)[Fuc(a1-6)]GlcNAc", "outline": "as §1"}, "Man(a1-6)Man": {"molecular_target": "Man(a1-6)Man", "outline": "as §1"}, "Man(b1-4)GlcNAc": {"molecular_target": "Man(b1-4)GlcNAc", "outline": "as §1"}, "MurNAc(b1-4)GlcNAc": {"molecular_target": "MurNAc(b1-4)GlcNAc", "outline": "as §1"}, "Neu5Ac(a2-3)Gal": {"molecular_target": "Neu5Ac(a2-3)Gal", "outline": "as §1"}, "[11]": {"molecular_target": "Neu5Ac(a2-3)Gal(b1-3)GalNAc", "outline": "as §1"}, "[12]": {"molecular_target": "Neu5Ac(a2-3)Gal(b1-3)GalNAc(b1-3)Gal(a1-4)Gal(b1-4)Glc", "outline": "as §1"}, "[13]": {"molecular_target": "Neu5Ac(a2-3)Gal(b1-3)GalNAc(b1-4)Gal(b1-4)Glc", "outline": "as §1"}, "[14]": {"molecular_target": "Neu5Ac(a2-3)Gal(b1-3)GalNAc(b1-4)[Neu5Ac(a2-3)]Gal(b1-4)Glc", "outline": "as §1"}, "[15]": {"molecular_target": "Neu5Ac(a2-3)Gal(b1-3)GalNAc(b1-4)[Neu5Ac(a2-8)Neu5Ac(a2-3)]Gal(b1-4)Glc", "outline": "as §1"}, "[16]": {"molecular_target": "Neu5Ac(a2-3)Gal(b1-3)GalNAc6S", "outline": "as §1"}, "[17]": {"molecular_target": "Neu5Ac(a2-3)Gal(b1-3)GlcNAc", "outline": "as §1"}, "[18]": {"molecular_target": "Neu5Ac(a2-3)Gal(b1-3)GlcNAc(b1-2)Man", "outline": "as §1"}, "[19]": {"molecular_target": "Neu5Ac(a2-3)Gal(b1-3)GlcNAc(b1-2)Man(a1-3)[GlcNAc(b1-4)][Neu5Ac(a2-3)Gal(b1-3)GlcNAc(b1-2)Man(a1-6)]Man(b1-4)GlcNAc(b1-4)GlcNAc", "outline": "as §1"}, "[20]": {"molecular_target": "Neu5Ac(a2-3)Gal(b1-3)GlcNAc(b1-2)Man(a1-3)[Neu5Ac(a2-3)Gal(b1-3)GlcNAc(b1-2)Man(a1-6)]Man(b1-4)GlcNAc(b1-4)GlcNAc", "outline": "as §1"}, "[21]": {"molecular_target": "Neu5Ac(a2-3)Gal(b1-3)GlcNAc(b1-2)[Neu5Ac(a2-3)Gal(b1-3)GlcNAc(b1-4)]Man(a1-6)[Neu5Ac(a2-3)Gal(b1-3)GlcNAc(b1-2)Man(a1-3)]Man(b1-4)GlcNAc(b1-4)GlcNAc", "outline": "as §1"}, "[22]": {"molecular_target": "Neu5Ac(a2-3)Gal(b1-3)GlcNAc(b1-3)Gal(b1-3)GlcNAc", "outline": "as §1"}, "[23]": {"molecular_target": "Neu5Ac(a2-3)Gal(b1-3)GlcNAc(b1-3)Gal(b1-4)GlcNAc", "outline": "as §1"}, "[24]": {"molecular_target": "Neu5Ac(a2-3)Gal(b1-3)GlcNAc(b1-3)GalNAc", "outline": "as §1"}, "[25]": {"molecular_target": "Neu5Ac(a2-3)Gal(b1-3)GlcNAc(b1-6)GalNAc", "outline": "as §1"}}, "note": "This is one part of the list.", "data": [{"binder": "B1", "values": [{"measurement": "glycan array binding signal (z-score)", "setting": "[1]", "result": -0.403}, {"measurement": "glycan array binding signal (z-score)", "setting": "[2]", "result": -0.465}, {"measurement": "glycan array binding signal (z-score)", "setting": "[3]", "result": -0.157}, {"measurement": "glycan array binding signal (z-score)", "setting": "[4]", "result": -0.309}, {"measurement": "glycan array binding signal (z-score)", "setting": "[5]", "result": -0.415}, {"measurement": "glycan array binding signal (z-score)", "setting": "Man(a1-3)[Man(a1-6)]Man", "result": 0.005}, {"measurement": "glycan array binding signal (z-score)", "setting": "[6]", "result": 0.094}, {"measurement": "glycan array binding signal (z-score)", "setting": "[7]", "result": -0.432}, {"measurement": "glycan array binding signal (z-score)", "setting": "[8]", "result": 0.57}, {"measurement": "glycan array binding signal (z-score)", "setting": "[9]", "result": -0.124}, {"measurement": "glycan array binding signal (z-score)", "setting": "[10]", "result": 0.916}, {"measurement": "glycan array binding signal (z-score)", "setting": "Man(a1-6)Man", "result": -0.125}, {"measurement": "glycan array binding signal (z-score)", "setting": "Man(b1-4)GlcNAc", "result": -0.16}, {"measurement": "glycan array binding signal (z-score)", "setting": "MurNAc(b1-4)GlcNAc", "result": 0.11}, {"measurement": "glycan array binding signal (z-score)", "setting": "Neu5Ac(a2-3)Gal", "result": -0.049}, {"measurement": "glycan array binding signal (z-score)", "setting": "[11]", "result": 0.09}, {"measurement": "glycan array binding signal (z-score)", "setting": "[12]", "result": -0.06}, {"measurement": "glycan array binding signal (z-score)", "setting": "[13]", "result": -0.437}, {"measurement": "glycan array binding signal (z-score)", "setting": "[14]", "result": 1.23}, {"measurement": "glycan array binding signal (z-score)", "setting": "[15]", "result": 0.025}, {"measurement": "glycan array binding signal (z-score)", "setting": "[16]", "result": -0.297}, {"measurement": "glycan array binding signal (z-score)", "setting": "[17]", "result": -0.313}, {"measurement": "glycan array binding signal (z-score)", "setting": "[18]", "result": -0.547}, {"measurement": "glycan array binding signal (z-score)", "setting": "[19]", "result": 0.857}, {"measurement": "glycan array binding signal (z-score)", "setting": "[20]", "result": -0.398}, {"measurement": "glycan array binding signal (z-score)", "setting": "[21]", "result": 0.553}, {"measurement": "glycan array binding signal (z-score)", "setting": "[22]", "result": -0.386}, {"measurement": "glycan array binding signal (z-score)", "setting": "[23]", "result": 0.474}, {"measurement": "glycan array binding signal (z-score)", "setting": "[24]", "result": 0.273}, {"measurement": "glycan array binding signal (z-score)", "setting": "[25]", "result": -0.218}]}]}
